PubChem BioAssay AID588342 (National Center for Advancing Translational Sciences (NCATS), 2011)
Out of some 360,000 compounds screened, about 25,000 (6.9%) were called active. The inconclusive results got no clear call from the source; some entries with a clear call stand among them for comparison. Calls come from the whole dose curve; as a rule, active = well fitted inhibition curve with a large enough effect; inconclusive = small, poorly fitted or top-dose-only effect; inactive = flat fitted curve, though single readings scatter. Potencies of inconclusive entries are doubtful fits and often do not repeat.

target: Luciferin 4-monooxygenase (Photinus pyralis) (UniProt P08659); experiment: qHTS profiling assay for firefly luciferase inhibitor/activator using purifed enzyme and Km concentrations of substrates (counterscreen for miR-21 project); details: purified FLuc, luminescence inhibition; series mostly up to 57.5 µM; activity change, negative = inhibition: at the top concentration; note: nearly all actives have a fitted effect of over 55% in size;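 for activity change, negative = inhibition: plate controls were vehicle for no effect and reference inhibitor for full effect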
Chain of UniProt P08659 (P08659 whole entry, looked up): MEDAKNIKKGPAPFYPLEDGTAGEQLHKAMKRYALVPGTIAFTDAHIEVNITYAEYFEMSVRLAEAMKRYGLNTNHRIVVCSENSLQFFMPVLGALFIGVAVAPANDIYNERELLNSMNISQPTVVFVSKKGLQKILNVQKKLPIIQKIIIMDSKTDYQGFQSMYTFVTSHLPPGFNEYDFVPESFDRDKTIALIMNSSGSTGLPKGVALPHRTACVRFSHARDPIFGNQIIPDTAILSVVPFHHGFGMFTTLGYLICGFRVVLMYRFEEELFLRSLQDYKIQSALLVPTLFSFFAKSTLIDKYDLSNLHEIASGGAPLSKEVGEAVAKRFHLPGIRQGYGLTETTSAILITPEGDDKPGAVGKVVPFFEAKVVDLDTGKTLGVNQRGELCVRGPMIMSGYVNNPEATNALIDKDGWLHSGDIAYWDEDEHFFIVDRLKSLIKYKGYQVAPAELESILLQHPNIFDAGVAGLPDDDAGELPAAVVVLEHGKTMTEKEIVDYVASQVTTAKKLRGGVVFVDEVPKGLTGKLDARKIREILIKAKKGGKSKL
Procedure, shortened: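 Purified P. pyralis luciferase, 10 nM final, with Km-level 10 uM D-luciferin and 10 uM ATP in 50 mM Tris acetate pH 7.5, 10 mM Mg acetate, 0.01% Tween-20, 0.05% BSA; 6-point qHTS titration about 60 µM downward; luminescence read.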
Potency is the fitted concentration of half-maximal effect; tags give direction and shape of the fitted curve.

| SMILES | Potency | activity change, negative = inhibition |
| --- | --- | --- |
| Nc1cnc(-c2ccccc2)nc1Cl | inconclusive: 21.3 µM [inhibitor, single point] | – |
| Cc1ccc(S(=O)(=O)N(C)CC(=O)OCC(=O)NC(=O)Nc2ccc3c(c2)OCCO3)cc1 | inconclusive: 26.9 µM [inhibitor, single point] | – |
| COc1ccc(N2CCN(c3ncccn3)CC2)cc1 | inconclusive: 26.9 µM [inhibitor, partial curve, poor fit] | – |
| CC(C)c1nnc(NC(=O)C2CCN(C(=O)Nc3ccccc3)CC2)s1 | – | inactive: 3.46% |
| Cc1cc(C)n(-c2ccc(C(=O)OC(C)C)cc2)n1 | inconclusive: 30.1 µM [inhibitor, partial curve, poor fit] | – |
| CSc1ccccc1OCc1cc(C(=O)NC(C)Cn2cncn2)no1 (centres undefined) | inconclusive: 33.8 µM [inhibitor, partial curve, poor fit] | – |
| CCOc1ccccc1C(=O)NC1(C(F)(F)F)C(=O)Nc2c1c(=O)[nH]c(=O)n2-c1ccc(F)cc1 (centres undefined) | inconclusive: 21.3 µM [inhibitor, partial curve, poor fit] | – |
| CCN1CCN(c2ccc(S(=O)(=O)N3CCCCC3)cc2NC(=O)c2ccc([N+](=O)[O-])s2)CC1 | – | inactive: -1% |
| NC(=S)Nc1cccc2cc3ccccc3cc12 | inconclusive: 26.9 µM [inhibitor, partial curve, poor fit] | – |
| COc1ccc(NC(=S)N2CCc3ccccc3C2)cc1 | inconclusive: 26.9 µM [inhibitor, partial curve, poor fit] | – |
| CC(C)c1ccc(NC(=O)C(c2ccccc2)N2CCN(C=O)CC2)cc1 (centres undefined) | inconclusive: 23.9 µM [inhibitor, partial curve] | – |
| COc1ccccc1/C=C1\SC(=S)N(CCC(=O)Nc2cccc(O)c2)C1=O | inconclusive: 37.9 µM [inhibitor, single point] | – |
| Fc1ccc(-c2nnn(Cc3ccccc3Cl)n2)cc1 | inconclusive: 26.9 µM [inhibitor, single point] | – |
| Cc1nc(C/C(=N\Nc2ccccc2)c2ccc(O)cc2O)cs1 | inconclusive: 26.9 µM [inhibitor, single point] | – |
| CCOC(=O)CSc1nc2ccc(NC(=O)c3cccc(F)c3)cc2s1 | inconclusive: 26.9 µM [inhibitor, partial curve] | – |
| O=C(Nc1cccc(F)c1)c1ccc(Br)o1 | inconclusive: 19 µM [inhibitor, single point] | – |
| Cc1nc(CSc2ccc(Cl)cc2)cs1 | inconclusive: 26.9 µM [inhibitor, partial curve] | – |
| N#CCCN(Cc1ccccc1)C(=O)c1cccs1 | – | inactive: -0.489% |
| C=CCOc1ccc(/C=C(\C#N)C(=O)Nc2ccccn2)cc1 | active: 2.13 µM | – |
| COc1ccc(NC2CCCN(C(=O)CN3CCOC3=O)C2)cc1OC (centres undefined) | – | inactive: 0.66% |
| Brc1cc(Br)c(Oc2cc(Br)c(Br)cc2Br)cc1Br | – | inactive: 1.37% |
| COc1cccc(NC(=O)CN(CCc2ccccc2)S(=O)(=O)c2ccc(Cl)cc2)c1 | – | inactive: -13.1% |
| O=C(OCC(=O)N1CCCc2ccccc21)c1cccc(S(=O)(=O)N2CCc3ccccc32)c1 | – | inactive: 5.15% |

| SMILES | Potency | activity change, negative = inhibition |
| --- | --- | --- |
| CC(C)c1ccc(COc2ccc(C(=O)N3CCOCC3)cc2)cc1 | inconclusive: 26.9 µM [inhibitor, partial curve, poor fit] | – |
| Cc1cccc(-c2nc3c4ccccc4nc(NCCc4ccccc4)n3n2)c1 | inconclusive: 6.75 µM [inhibitor, partial curve] | – |
| Cc1cc(NCc2ccccc2)nc(-c2ccccc2O)n1 | inconclusive: 21.3 µM [inhibitor, partial curve, poor fit] | – |
| CCOc1ccc2nc(SCC(=O)Nc3ncccn3)[nH]c2c1 | inconclusive: 21.3 µM [inhibitor, partial curve, poor fit] | – |
| Cn1c(CO)cnc1SCc1ccc(Cl)cc1 | – | inactive: -15.7% |
| O=C(Nc1ccccc1)OCCOc1ccccc1 | active: 10.7 µM | – |
| CC(C)(C)C(=O)Cn1ncc(N2CCCC2)c(Br)c1=O | inconclusive: 19 µM [inhibitor, partial curve] | – |
| COc1ccc(-c2cn(CC3CCCCC3)nn2)cc1 | inconclusive: 7.57 µM [inhibitor, full curve] | – |
| O=C(Nc1ccccn1)c1ccc2c(c1)OCO2 | active: 12 µM | – |
| COc1cc(OC)c(N(C)S(=O)(=O)c2cccc(C(=O)OCC(=O)c3c[nH]c4ccccc34)c2)cc1Cl | – | inactive: -2.67% |
| COc1ccccc1-c1noc(-c2ccc(NCC3CCCO3)c([N+](=O)[O-])c2)n1 (centres undefined) | inconclusive: 16.9 µM [inhibitor, partial curve] | – |
| Cc1ccc2oc(=O)n(CCCOc3ccccc3Cl)c2c1 | inconclusive: 23.9 µM [inhibitor, partial curve] | – |
| CCCCN(C)CCNC(=O)CN1C(=O)CSc2ccc(S(=O)(=O)N3CCOCC3)cc21 | inactive | – |
| O=S(=O)(Cc1cc(-c2ccccc2Cl)no1)c1ccccc1 | active: 16.9 µM | – |
| Cc1ccc(-c2cn3c(n2)sc2cc(C(=O)NCCCc4ccccc4)ccc23)c(C)c1 | – | inactive: -0.7% |
| CCCCN(CCCNC(=O)c1cc(Nc2ccc(OC)c(OC)c2)nc2ccccc12)c1ccccc1 | inconclusive: 30.1 µM [inhibitor, partial curve, poor fit] | – |
| CCN1CCN(Cc2c(O)ccc3c2O/C(=C\c2ccc(C)cc2)C3=O)CC1 | inconclusive: 15.1 µM [inhibitor, partial curve] | – |
| COC(=O)c1c(NC(=O)CC2SC(N)=NC2=O)sc(C)c1C (centres undefined) | – | inactive: -14.9% |
| Oc1cccc(C=Nc2cccc3ccccc23)c1O | inconclusive: 23.9 µM [inhibitor, partial curve, poor fit] | – |
| CCOc1ccc(/C=C/C2=Cc3c(sc(NC(=O)CSc4n[nH]c(N)n4)c3C#N)C(C)(C)C2)cc1 | active: 9.53 µM | – |
| COc1ccc(NC(C)=O)cc1NC(=O)CN1CCN(c2ccc(F)cc2)CC1 | – | inactive: 1.43% |
| O=C(Nc1ccc(F)c(F)c1)c1ccco1 | inconclusive: 37.9 µM [inhibitor, single point] | – |
| COc1ccc([C@H]2CC(=O)C=C(c3ccc4[nH]ccc4c3)C2)cc1OC | inconclusive: 12.6 µM [inhibitor, partial curve, poor fit] | – |

| SMILES | Potency | activity change, negative = inhibition |
| --- | --- | --- |
| CCc1nnc(NC(=O)COc2ccc3c(c2)OCO3)s1 | – | inactive: -11.4% |
| O=C(CSc1nc(-c2ccc(F)cc2)[nH]c1-c1ccc(F)cc1)Nc1ccc2c(c1)OCO2 | – | inactive: -2.24% |
| CN(C)C(=S)SCC(=O)Nc1cccc(C(F)(F)F)c1 | inconclusive: 23.9 µM [inhibitor, partial curve, poor fit] | – |
| Cn1nnnc1SCC(=O)Nc1nc2ccccc2s1 | inconclusive: 13.5 µM [inhibitor, partial curve, poor fit] | – |
| CC(C)(C)N(Cc1ccccc1)C(=O)CN1C(=O)c2ccccc2C1=O | inconclusive: 23.9 µM [inhibitor, partial curve, poor fit] | – |
| COc1cc(NC(=O)CSc2ccc(-c3ccccn3)nn2)cc(OC)c1 | inconclusive: 23.9 µM [inhibitor, partial curve, poor fit] | – |
| O=C(CSc1nnc(-c2ccncc2)n1-c1ccc(Cl)cc1)Nc1ccc(C(=O)O)cc1 | – | inactive: -4.75% |
| CC/C(=N\Nc1ccc([N+](=O)[O-])cc1[N+](=O)[O-])c1ccc(O)cc1 | – | inactive: -1.39% |
| Cc1ccc(/C=N/NC(=O)c2cccnc2)s1 | inconclusive: 37.9 µM [inhibitor, single point] | – |
| CCOC(=O)c1ccc(NS(=O)(=O)N2CCCCCC2)cc1 | inconclusive: 19 µM [inhibitor, partial curve, poor fit] | – |
| O=C(CSCc1ccccc1Br)N/N=C/c1ccc(OCC(=O)N2CCCCC2)cc1 | inconclusive: 21.3 µM [inhibitor, partial curve, poor fit] | – |
| CC1S/C(=N/N=C/c2ccco2)N(Cc2ccccc2)C1=O (centres undefined) | inconclusive: 26.9 µM [inhibitor, partial curve, poor fit] | – |
| Cc1ccc(Cn2ccc(NC(=O)c3noc4c3CCc3ccccc3-4)n2)cc1 | inconclusive: 21.3 µM [inhibitor, partial curve, poor fit] | – |
| COC(=O)c1sc(NC(=O)COC(=O)C2CCC2)c(C(=O)OC)c1C | – | inactive: 6.53% |
| CC(C)Oc1ccc(C(=O)Nc2c(C(=O)Nc3cccc(F)c3)oc3ccccc23)cc1 | inconclusive: 2.69 µM [inhibitor, full curve] | – |
| C#CCn1c(=NC(=O)c2ccc(Br)s2)sc2cccc(OC)c21 | inconclusive: 16.9 µM [inhibitor, partial curve, poor fit] | – |
| O=C(CC(=O)N/N=C/c1ccc(F)cc1)N/N=C/c1ccc(F)cc1 | active: 15.1 µM | – |
| Cc1nc2nc(-c3ccc(Cl)cc3)nn2c(C)c1Cl | inconclusive: 8.49 µM [inhibitor, partial curve] | – |
| O=C(Nc1nc2ccc(F)cc2s1)C1=NN(c2ccccc2)C(=O)CC1 | inconclusive: 37.9 µM [inhibitor, partial curve, poor fit] | – |
| COc1cc(C(=O)Nc2cccc(S(=O)(=O)N3CCCC3)c2)cc(OC)c1C | – | inactive: -17.3% |
| O=C(CSc1nnc(-c2ccccc2F)o1)N1CCCC1 | inconclusive: 26.9 µM [inhibitor, partial curve, poor fit] | – |
| CC(OC(=O)CNC(=O)c1ccccc1F)C(=O)Nc1nc(-c2ccccc2)cs1 (centres undefined) | inconclusive: 23.9 µM [inhibitor, single point] | – |
| COc1ccc(-n2c(C)cc(-c3cn4cccc(C)c4n3)c2C)cc1 | inconclusive: 26.9 µM [inhibitor, partial curve, poor fit] | – |
